According to article PMC4336329 (PLoS ONE, 2015):
Hit rate of the full screen: of about 310,000 compounds, about 14,000 (4.5%) showed an effect of 50% or more. The effect is printed as a negative number. The list shows a part of the results.

molecular target: human ether-à-go-go-related gene (hERG) potassium channel (human, UniProt Q12809); test: primary screen, population patch clamp on CHO cells stably expressing hERG
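Note: peak tail current of the secondary pulse compared with the same well before compound.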

Sequence of human ether-à-go-go-related gene (hERG) potassium channel (Q12809 whole entry, looked up): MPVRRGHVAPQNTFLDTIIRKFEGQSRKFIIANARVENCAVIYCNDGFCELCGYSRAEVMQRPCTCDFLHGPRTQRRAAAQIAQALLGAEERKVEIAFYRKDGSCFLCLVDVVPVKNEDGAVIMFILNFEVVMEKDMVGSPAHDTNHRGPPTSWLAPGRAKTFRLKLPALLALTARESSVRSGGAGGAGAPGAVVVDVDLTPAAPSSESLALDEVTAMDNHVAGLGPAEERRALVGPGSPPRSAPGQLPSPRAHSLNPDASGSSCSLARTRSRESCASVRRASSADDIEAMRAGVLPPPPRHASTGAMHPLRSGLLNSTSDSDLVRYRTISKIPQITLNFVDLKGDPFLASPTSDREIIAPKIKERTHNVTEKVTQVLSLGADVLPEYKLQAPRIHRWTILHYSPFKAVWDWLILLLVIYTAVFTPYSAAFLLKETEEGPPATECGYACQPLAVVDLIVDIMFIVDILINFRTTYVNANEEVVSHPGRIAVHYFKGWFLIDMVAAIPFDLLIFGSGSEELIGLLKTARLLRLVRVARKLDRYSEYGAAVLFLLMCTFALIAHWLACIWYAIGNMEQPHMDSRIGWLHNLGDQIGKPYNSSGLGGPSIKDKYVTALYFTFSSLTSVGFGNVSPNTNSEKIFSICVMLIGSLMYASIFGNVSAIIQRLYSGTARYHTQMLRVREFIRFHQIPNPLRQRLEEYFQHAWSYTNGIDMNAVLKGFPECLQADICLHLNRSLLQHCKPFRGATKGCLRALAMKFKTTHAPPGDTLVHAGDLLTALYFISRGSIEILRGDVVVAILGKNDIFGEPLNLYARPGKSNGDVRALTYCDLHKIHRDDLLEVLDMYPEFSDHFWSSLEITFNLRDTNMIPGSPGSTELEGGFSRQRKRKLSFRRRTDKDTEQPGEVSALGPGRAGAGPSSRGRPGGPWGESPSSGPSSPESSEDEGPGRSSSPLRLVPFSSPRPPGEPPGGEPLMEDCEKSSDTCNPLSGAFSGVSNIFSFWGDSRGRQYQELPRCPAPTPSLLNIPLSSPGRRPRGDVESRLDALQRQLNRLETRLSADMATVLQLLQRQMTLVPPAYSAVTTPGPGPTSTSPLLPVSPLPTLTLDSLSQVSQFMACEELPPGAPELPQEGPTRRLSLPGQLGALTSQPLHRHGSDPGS

| Structure (SMILES) | hERG current change (%, negative = inhibition) at 10uM |
| --- | --- |
| CC(C)OCCCNC(=O)c1sc(=S)n(C)c1N | 2.64% |
| O=C(CCc1nc(-c2ccccc2F)no1)NC1CCCCC1 | 3.99% |
| O=C(N/N=C/c1cn(-c2ccccc2)nc1-c1ccc(F)cc1)c1ccc(Br)o1 | 27.7% |
| CCN1C(=O)[C@H]2[C@@H](c3ccc(Cl)cc3)N3C(=O)CN(CC4CC4)C(=O)[C@@]3(Cc3ccccc3)[C@H]2C1=O | -18.2% |
| CCOc1ccc2nc(SC3CC(=O)N(c4ccc(C)cc4)C3=O)sc2c1 (stereo not drawn) | -6.29% |
| C/C(=N\Nc1nc(N2CCOCC2)nc(N2CCOCC2)n1)c1cccc([N+](=O)[O-])c1 | -4.76% |
| COc1ccc2nc(NC(=O)CCc3cc(OC)c(OC)c(OC)c3)sc2c1 | -9.26% |
| CC(=O)Nc1ccc(/C=C2\CCc3ccccc3C2=O)cc1 | 11.7% |
| COc1ccccc1CC(=O)N1CCN(c2ccccc2F)CC1 | -7.74% |
| COc1ccc(-c2cc(C(=O)NCCCN3CCOCC3)c3ccccc3n2)cc1OC | -7.5% |
| CC1(C)NC(=O)N(CC(=O)N2CCN(c3cccc(C(F)(F)F)c3)CC2)C1=O | 6.26% |
| C=C1CCC[C@]2(C)C[C@H]3OC(=O)C(CNCCN(CC)CC)[C@H]3CC12.O=C(O)C(=O)O (stereo partly drawn) | 0.486% |
| O=C(c1ccccc1)N1CCCN(c2nccc(C(F)(F)F)n2)CC1 | -5.32% |
| O=C(CCC(=O)c1ccc(F)cc1)NCC1(N2CCCCC2)CCCCC1 | -35% |
| Cc1ccc2cccc(OCC(=O)NCc3ccco3)c2n1 | -17.9% |
| COc1ccc(S(=O)(=O)Nc2cccnc2)cc1OC | 4.69% |
| CCOc1ccc(OCCCC(=O)ON=C(N)c2ccccc2Cl)cc1 | 5.82% |
| FC(F)(F)c1cccc(N2CCN(C3CC4CCC3C4)CC2)c1 (stereo not drawn) | -1.68% |
| CC(Cc1cccs1)NC(=O)Nc1ccc(Cl)cc1 (stereo not drawn) | 1.12% |
| Cc1noc(C)c1COc1ccc(C(=O)OCC(=O)NCCN2C(=O)CSC2=O)cc1 | -8.06% |
| S=c1[nH]nc(-c2ccncc2)n1/N=C/c1cccc2ccccc12 | 10.1% |
| CCN(CC)CCNC(=O)c1cn(CC)c2ccc(S(=O)(=O)N(C)C3CCCCC3)cc2c1=O | -67.2% |
| CCC(CO)Oc1cc(NC(=O)c2ccccc2)c2ncn(C(C)C)c2c1 (stereo not drawn) | -2.51% |

| Structure (SMILES) | hERG current change (%, negative = inhibition) at 10uM |
| --- | --- |
| Cc1cc(NS(=O)(=O)c2ccc(NC(=O)CCCOc3ccccc3C)cc2)no1 | 10.1% |
| c1ccc(CNc2ncnc3sccc23)cc1 | 9.9% |
| CCc1cc(=S)n2c([nH]c3ccccc32)c1C#N | 24.6% |
| O=C(c1ccccc1)N1CCN(C(=O)c2ccccc2Br)CC1 | 6.61% |
| Cc1ccc(/C=C2\SC(=S)N(Cc3ccccc3)C2=O)o1 | -11.3% |
| CCNc1c(C(=O)O)ccc2c1C(=O)c1ccccc1C2=O | 6.49% |
| CC1CCCC(NC(=O)c2cccc(S(=O)(=O)N3CCCCC3)c2)C1C (stereo not drawn) | 1.84% |
| Cc1ccc(NC(=O)Nc2ccc([N+](=O)[O-])cc2)nc1 | 9.85% |
| COc1ccc(CCNC(=O)Cn2c(=O)cnc3ccccc32)cc1 | -5.47% |
| Cc1ccc(C)c(OCCCC(=O)N2CCOCC2)c1 | -2.18% |
| O=C(Nc1sc2c(c1C(=O)NCC(O)CO)CCCC2)c1ccccc1 (stereo not drawn) | 6.02% |
| CCCC[n+]1ccn(-c2nc3ccccc3nc2[N-]S(=O)(=O)c2ccc(C)cc2)c1 | -15.2% |
| CC(C)Cc1nnc(NC(=O)c2cc3c(s2)CCC3)s1 | 16.9% |
| O=C(C1CCN(c2nnnn2-c2ccccc2)CC1)N1CCN(c2ccccc2)CC1 | -33.9% |
| CCCc1cc(=O)[nH]c(N2CCN(Cc3ccc4c(c3)OCO4)CC2)n1 | -9.57% |
| c1nc(N2CCOCC2)c2c3c(sc2n1)CCCC3 | -7.14% |
| CC(=O)N1CCN(C(=O)C2(NC(=O)Nc3ccccc3Cl)CCCCC2)CC1 | 12.5% |
| O=C(NCc1n[nH]c(=S)n1-c1ccc(Cl)c(Cl)c1)c1ccco1 | 16.7% |
| Cc1ccc(CNC(=O)COC(=O)C2CCN(S(=O)(=O)c3cccs3)CC2)cc1 | -50.5% |
| O=c1n(-c2ccc(Br)cc2)cnn1-c1ncccc1[N+](=O)[O-] | -22.1% |
| O=C(O)c1ccc(COc2c(F)c(F)c(F)c(F)c2F)o1 | -1.09% |
| O=C(CBr)c1ccc([N+](=O)[O-])c(CS(=O)(=O)c2ccc(Cl)cc2)c1 | -2.19% |
